According to PubChem BioAssay (Tox21):
This list was built around the results that the source calls inconclusive (neither active nor inactive); the mix of calls is not that of the screen. For some of these results: Potencies beside an inconclusive call are fits to weak or partial responses and may not hold up. Active and inactive are the calls of the source. Unless noted, calls come from the whole dose curve; as a rule, active = well fitted curve in the direction sought with a large enough effect in the repeat runs; inconclusive = weak or mixed curves; inactive = no such curve, though single readings can be large; an effect the other way counts as inactive or inconclusive.

Tests used:
[1] = qHTS assay to identify small molecule that activate the aryl hydrocarbon receptor (AhR) signaling pathway - cell viability counter screen (AID 743086); note: potency is the fitted concentration of half-maximal effect; nearly all actives have a fitted effect of over 45% in size
Outline: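 HepG2-AhR-luc (HG2L7.5c1) cells, 4000/well, treated 24 h at 37 C with compound; viability measured as CellTiter-Fluor fluorescence after 30 min in the same wells as the luciferase read.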

[2] = target: Peroxisome proliferator-activated receptor gamma (Homo sapiens) (UniProt P37231); experiment: qHTS assay to identify small molecule agonists of the peroxisome proliferator-activated receptor gamma (PPARg) signaling pathway (AID 743094; active = well fitted activation curve with a large enough effect in the signal ratio in the repeat runs, not every such curve was filed as active; inconclusive = weak or mixed curves, or effect the other way; inactive = no such curve, though single readings can be large or run the other way; the % refers to the signal ratio; note: potency is the fitted concentration of half-maximal effect; for activation: % is set by controls: 0 for no effect and ±100 for the full control effect); settings: HEK293H PPARg-UAS-bla, beta-lactamase FRET ratio, 17 h; activation: at 57 µM (top of the series) unless noted
Outline: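 Agonist activity was taken from a beta-lactamase reporter (FRET substrate, 1 h at room temperature) in HEK293H cells carrying a PPARg UAS-bla construct. Compounds in DMSO were incubated 17 h at 37C after a 5 h cell pre-incubation.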

[3] = target: Peroxisome proliferator-activated receptor gamma (Homo sapiens) (UniProt P37231); experiment: qHTS assay to identify small molecule antagonists of the peroxisome proliferator-activated receptor gamma (PPARg) signaling pathway (AID 743191; calls by dose curve; note: nearly all actives have a fitted effect of over 30% in size; note: potency is the fitted concentration of half-maximal effect; for ratio activity, negative = inhibition: % is set by controls: 0 for no effect and ±100 for the full control effect); settings: HEK293H PPARg-UAS-bla, beta-lactamase ratio, antagonist, 17 h; ratio activity, negative = inhibition: at 62.6 µM (top of the series) unless noted
Outline: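 GeneBLAzer PPARg UAS-bla HEK293H cells, 5 h post-plating, exposed to compounds 17 h at 37C. LiveBLAzer B/G FRET substrate added for 1 h at room temperature; beta-lactamase reporter read by fluorescence intensity.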

[4] = qHTS assay for small molecule agonists of the antioxidant response element (ARE) signaling pathway (AID 743202; active = well fitted activation curve with a large enough effect in the signal ratio in the repeat runs, not every such curve was filed as active; inconclusive = weak or mixed curves, or effect the other way; inactive = no such curve, though single readings can be large or run the other way; the % refers to the signal ratio; note: potency is the fitted concentration of half-maximal effect); settings: HepG2 ARE-bla reporter, beta-lactamase FRET, 16 h; activation: at 73.3 µM (top of the series) unless noted
Outline: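 HepG2 ARE-bla reporter line, 2,000 cells/well; 5 h preincubation 37 C/5% CO2; compound (DMSO) 16 h 37 C; B/G FRET substrate 2 h RT; fluorescence intensity.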

[5] = qHTS assay for small molecule activators of the heat shock response signaling pathway (AID 743210; active = well fitted activation curve with a large enough effect in the signal ratio in the repeat runs, with a control signal flat, not every such curve was filed as active; inconclusive = weak or mixed curves; the % refers to the signal ratio; note: potency is the fitted concentration of half-maximal effect); settings: HeLa HSE-bla reporter, beta-lactamase ratio, 5 h; activation: at 62.6 µM (top of the series)
Outline: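 Beta-lactamase reporter read-out: FRET substrate fluorescence after 2.5 h at RT, following 5 h compound treatment at 37 C of HeLa cells carrying HSE-driven bla reporter; quantitative HTS format.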

[6] = qHTS assay to identify small molecule antagonists of the peroxisome proliferator-activated receptor delta (PPARd) signaling pathway - cell viability counter screen (AID 743213); settings: PPARd-bla HEK293H viability, CellTiter-Glo luminescence, 17 h; viability change, negative = cytotoxic: at 62 µM (top of the series) unless noted; note: potency is the fitted concentration of half-maximal effect; nearly all actives have a fitted effect of over 50% in size
Outline: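 CellTiter-Glo was added to PPARd-bla HEK293H wells following 17 h compound treatment in the presence of 300 nM L165041. Luminescence was recorded after 30 min at room temperature.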

[7] = qHTS assay to identify small molecule agonists of the farnesoid-X-receptor (FXR) signaling pathway - cell viability counter screen (AID 743218); settings: FXR-bla HEK293T viability, CellTiter-Glo luminescence, 16 h; viability change, negative = cytotoxic: at 62.6 µM (top of the series) unless noted; note: potency is the fitted concentration of half-maximal effect; nearly all actives have a fitted effect of over 45% in size
Outline: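 Viability counter screen in the same wells: CellTiter-Glo luminescence, 30 min room-temperature incubation, measured after the beta-lactamase read. Cells were GeneBLAzer FXR-UAS-bla HEK 293T, compound-treated 16 h at 37C.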

[8] = target: Vitamin D3 receptor (Homo sapiens) (UniProt P11473); experiment: qHTS assay to identify small molecule antagonists of the vitamin D receptor (VDR) signaling pathway (AID 743223; active = well fitted inhibition curve with a large enough effect in the signal ratio in the repeat runs, not every such curve was filed as active; inconclusive = weak or mixed curves, or effect the other way; inactive = no such curve, though single readings can be large or run the other way; the % refers to the signal ratio; note: % is set by controls: 0 for no effect and ±100 for the full control effect); settings: VDR-UAS-bla HEK293T, beta-lactamase FRET ratio, 16 h; activity change, negative = inhibition: at 61 µM (top of the series) unless noted
Outline: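 Antagonist mode: compound added to VDR-bla cells alongside agonist 1alpha,25-dihydroxyvitamin D3 (3 nM final), incubation 16 h at 37C. Read-out is LiveBLAzer FRET fluorescence, 2 h at room temperature.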

[9] = qHTS assay to identify small molecule agonists of the vitamin D receptor (VDR) signaling pathway - cell viability counter screen (AID 743224); settings: VDR-bla HEK293T viability, CellTiter-Glo luminescence, 16 h; activity change, negative = cytotoxicity: at 62.6 µM (top of the series) unless noted; note: potency is the fitted concentration of half-maximal effect; nearly all actives have a fitted effect of over 50% in size
Outline: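 Counter screen run in the same wells as the VDR-bla reporter assay: CellTiter-Glo luminescence, 30 min at room temperature, after 16 h compound treatment at 37C of cells pre-plated for 4 h.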

[10] = qHTS assay to identify small molecule antagonists of the vitamin D receptor (VDR) signaling pathway - cell viability counter screen (AID 743225); settings: VDR-bla HEK293T viability, CellTiter-Glo luminescence, 16 h; viability change, negative = cytotoxic: at 61 µM (top of the series) unless noted; note: potency is the fitted concentration of half-maximal effect; nearly all actives have a fitted effect of over 50% in size
Outline: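 Cytotoxicity counter screen read by CellTiter-Glo luminescence (30 min, room temperature) in the same wells as the VDR-bla antagonist readout. HEK 293T VDR-UAS-bla cells had 16 h at 37C with compound and 3 nM (final) 1-alpha,25-dihydroxyvitamin D3, then 2 h with FRET substrate.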

[11] = qHTS assay to identify small molecule antagonists of the peroxisome proliferator-activated receptor gamma (PPARg) signaling pathway - cell viability counter screen (AID 743194); settings: PPARg-bla HEK293H viability, CellTiter-Glo luminescence, 17 h, co-treated with 50 nM rosiglitazone; activity change, negative = cytotoxicity: at 62.6 µM (top of the series) unless noted; note: potency is the fitted concentration of half-maximal effect; nearly all actives have a fitted effect of over 55% in size
Outline: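 Cytotoxicity counter screen in PPARg-bla HEK293H cells, same wells as reporter assay. Compounds plus 50 nM rosiglitazone (final) for 17 h at 37 C, then viability read by CellTiter-Glo luminescence.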

[12] = qHTS assay for small molecule agonists of the antioxidant response element (ARE) signaling pathway - cell viability counter screen (AID 743203; calls by dose curve; note: potency is the fitted concentration of half-maximal effect; nearly all actives have a fitted effect of over 55% in size); settings: ARE-bla HepG2 viability, CellTiter-Glo luminescence, 16 h; viability change, negative = cytotoxic: at 73.3 µM (top of the series)
Outline: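 Viability counter screen: CellTiter-Glo luminescence, read after 30 min at room temperature, in ARE-bla HepG2 wells. Compound exposure lasted 16 h at 37C/5% CO2, following a 5 h pre-incubation of the cells after plating.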

[13] = qHTS assay for small molecule activators of the heat shock response signaling pathway - cell viability counter screen (AID 743209); settings: HSE-bla HeLa viability, CellTiter-Glo luminescence, 5 h; activity change, negative = cytotoxicity: at 62.6 µM (top of the series) unless noted; note: potency is the fitted concentration of half-maximal effect; nearly all actives have a fitted effect of over 50% in size
Outline: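 Cytotoxicity counter screen run in the same wells as the heat-shock bla reporter assay: HeLa HSE-bla cells, 5 h compound exposure at 37 C, viability read by CellTiter-Glo luminescence.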

[14] = target: Peroxisome proliferator-activated receptor delta (Homo sapiens) (UniProt Q03181); experiment: qHTS assay to identify small molecule agonists of the peroxisome proliferator-activated receptor delta (PPARd) signaling pathway (AID 743212; calls by dose curve; note: potency is the fitted concentration of half-maximal effect); settings: HEK293H PPARd-UAS-bla, beta-lactamase FRET ratio, 17 h; activation: at 62.6 µM (top of the series) unless noted
Outline: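 Read-out: beta-lactamase FRET fluorescence after 2 h room-temperature incubation with LiveBLAzer B/G substrate. Cells were HEK293H carrying a UAS-bla reporter for PPARd, treated at 37 C with DMSO-dissolved compounds.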

[15] = target: Peroxisome proliferator-activated receptor delta (Homo sapiens) (UniProt Q03181); experiment: qHTS assay to identify small molecule antagonists of the peroxisome proliferator-activated receptor delta (PPARd) signaling pathway (AID 743215; active = well fitted inhibition curve with a large enough effect in the signal ratio in the repeat runs, not every such curve was filed as active; inconclusive = weak or mixed curves, or effect the other way; inactive = no such curve, though single readings can be large or run the other way; the % refers to the signal ratio;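 note: cells stimulated with agonist L165041 at 300 nM final during compound exposure; potency is the fitted concentration of half-maximal effect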); settings: HEK293H PPARd-UAS-bla, beta-lactamase FRET ratio, antagonist, 17 h; ratio activity, negative = inhibition: at 62 µM (top of the series) unless noted
Outline: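 Agonist L165041 (300 nM final) added with compound to PPARd-bla HEK293H UAS-bla reporter cells; 17 h incubation at 37 C. Read-out: LiveBLAzer FRET substrate, 2 h at room temperature, fluorescence intensity.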

[16] = target: Bile acid receptor (Homo sapiens) (UniProt Q96RI1); experiment: qHTS assay to identify small molecule antagonists of the farnesoid-X-receptor (FXR) signaling pathway (AID 743217; active = well fitted inhibition curve with a large enough effect in the signal ratio in the repeat runs, not every such curve was filed as active; inconclusive = weak or mixed curves, or effect the other way; inactive = no such curve, though single readings can be large or run the other way; the % refers to the signal ratio; note: potency is the fitted concentration of half-maximal effect); settings: HEK293T FXR-UAS-bla, beta-lactamase ratio, CDCA-stimulated, 16 h; activity change, negative = inhibition: at 62.6 µM (top of the series) unless noted
Outline: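 Antagonist mode: chenodeoxycholic acid at 50 uM final stimulates a UAS-driven beta-lactamase reporter in HEK 293T FXR-bla cells during 16 h, 37C compound exposure. Read-out is FRET substrate fluorescence after 2 h at room temperature.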

[17] = qHTS assay to identify small molecule antagonists of the farnesoid-X-receptor (FXR) signaling pathway - cell viability counter screen (AID 743221; active = well fitted cell-killing curve with a large enough effect in the repeat runs, not every such curve was filed as active; inconclusive = weak or mixed curves, or effect the other way; inactive = no such curve, though single readings can be large or run the other way); settings: FXR-bla HEK293T viability, CellTiter-Glo luminescence, 16 h; activity change, negative = cytotoxicity: at 62.6 µM (top of the series)
Outline: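 Cytotoxicity counter screen run in the FXR-bla reporter wells: HEK 293T cells exposed to compound with 50 uM (final) chenodeoxycholic acid for 16 h, 37 C, then viability measured by CellTiter-Glo luminescence after 30 min, room temperature.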

[18] = target: Vitamin D3 receptor (Homo sapiens) (UniProt P11473); experiment: qHTS assay to identify small molecule agonists of the vitamin D receptor (VDR) signaling pathway (AID 743222; calls by dose curve; note: potency is the fitted concentration of half-maximal effect); settings: HEK293T VDR-UAS-bla, beta-lactamase FRET ratio, 16 h; activation: at 63.5 µM (top of the series) unless noted
Outline: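 Agonist mode, beta-lactamase reporter: fluorescence from LiveBLAzer B/G FRET substrate (2 h, room temperature) read after 16 h compound treatment at 37 C of VDR-bla cells, which were pre-incubated 4 h after seeding.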

[19] = qHTS assay to identify small molecule agonists of the peroxisome proliferator-activated receptor delta (PPARd) signaling pathway - cell viability counter screen (AID 743211); settings: PPARd-bla HEK293H viability, CellTiter-Glo luminescence, 17 h; activity change, negative = cytotoxicity: at 62.6 µM (top of the series); note: potency is the fitted concentration of half-maximal effect; nearly all actives have a fitted effect of over 55% in size
Outline: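 Viability was measured as CellTiter-Glo luminescence (30 min, room temperature) in the same wells as the beta-lactamase readout. GeneBLAzer PPARd UAS-bla HEK293H cells received compound after 5 h plating and were incubated 17 h at 37 C.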

[20] = target: Bile acid receptor (Homo sapiens) (UniProt Q96RI1); experiment: qHTS assay to identify small molecule agonists of the farnesoid-X-receptor (FXR) signaling pathway (AID 743220; active = well fitted activation curve with a large enough effect in the signal ratio in the repeat runs, not every such curve was filed as active; inconclusive = weak or mixed curves, or effect the other way; the % refers to the signal ratio; note: potency is the fitted concentration of half-maximal effect); settings: HEK293T FXR-UAS-bla, beta-lactamase FRET ratio, 16 h; activation: at 62.6 µM (top of the series) unless noted
Outline: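 FXR-UAS-bla HEK 293T cells carrying a UAS-driven beta-lactamase reporter were plated for 5 h at 37C/5% CO2, then exposed to DMSO-dissolved Tox21 10K compounds for 16 h at 37C. A LiveBLAzer B/G FRET substrate was loaded for 2 h at room temperature before fluorescence reading.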
Tags give direction and shape of the fitted curve or compound fluorescence and quenching.

UniProt Q96RI1, sequence (Q96RI1 whole entry, looked up): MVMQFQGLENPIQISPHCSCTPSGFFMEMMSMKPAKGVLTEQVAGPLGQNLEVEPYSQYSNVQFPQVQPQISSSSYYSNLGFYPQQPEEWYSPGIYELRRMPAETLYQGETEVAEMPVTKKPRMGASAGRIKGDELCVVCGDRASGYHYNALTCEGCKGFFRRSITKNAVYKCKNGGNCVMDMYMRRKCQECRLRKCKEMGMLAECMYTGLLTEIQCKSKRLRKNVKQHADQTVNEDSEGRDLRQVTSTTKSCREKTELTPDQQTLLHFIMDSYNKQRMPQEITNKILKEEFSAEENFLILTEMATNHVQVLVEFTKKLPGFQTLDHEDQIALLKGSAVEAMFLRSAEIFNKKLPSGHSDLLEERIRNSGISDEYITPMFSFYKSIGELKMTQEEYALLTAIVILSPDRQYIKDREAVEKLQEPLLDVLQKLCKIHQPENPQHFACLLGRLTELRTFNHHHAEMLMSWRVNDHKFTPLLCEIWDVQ
UniProt P11473, sequence (P11473 whole entry, looked up): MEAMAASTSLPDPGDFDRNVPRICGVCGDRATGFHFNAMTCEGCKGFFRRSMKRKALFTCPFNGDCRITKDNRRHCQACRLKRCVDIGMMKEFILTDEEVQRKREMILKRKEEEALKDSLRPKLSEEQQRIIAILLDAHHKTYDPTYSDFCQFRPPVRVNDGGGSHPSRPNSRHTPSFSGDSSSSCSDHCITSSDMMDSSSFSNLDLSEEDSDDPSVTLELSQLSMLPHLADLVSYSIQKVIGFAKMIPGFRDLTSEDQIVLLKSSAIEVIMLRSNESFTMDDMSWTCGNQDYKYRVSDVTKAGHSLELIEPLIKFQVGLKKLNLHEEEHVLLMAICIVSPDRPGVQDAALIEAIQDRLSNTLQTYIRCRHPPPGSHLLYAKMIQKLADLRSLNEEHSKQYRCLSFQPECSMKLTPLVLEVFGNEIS
UniProt P37231, sequence (P37231 whole entry, looked up): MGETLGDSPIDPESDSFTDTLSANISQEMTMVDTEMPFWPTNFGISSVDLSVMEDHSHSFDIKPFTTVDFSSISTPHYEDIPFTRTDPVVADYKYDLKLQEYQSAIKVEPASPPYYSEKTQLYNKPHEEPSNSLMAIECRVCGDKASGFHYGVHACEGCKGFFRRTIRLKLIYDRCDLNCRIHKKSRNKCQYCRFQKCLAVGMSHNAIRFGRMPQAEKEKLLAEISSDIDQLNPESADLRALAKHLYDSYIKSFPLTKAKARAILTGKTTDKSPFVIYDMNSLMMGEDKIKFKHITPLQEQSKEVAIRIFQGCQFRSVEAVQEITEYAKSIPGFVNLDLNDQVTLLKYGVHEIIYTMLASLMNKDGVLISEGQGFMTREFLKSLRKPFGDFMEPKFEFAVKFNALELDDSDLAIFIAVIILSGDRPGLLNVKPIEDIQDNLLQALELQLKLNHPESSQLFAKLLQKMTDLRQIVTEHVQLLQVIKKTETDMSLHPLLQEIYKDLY
UniProt Q03181, sequence (Q03181 whole entry, looked up): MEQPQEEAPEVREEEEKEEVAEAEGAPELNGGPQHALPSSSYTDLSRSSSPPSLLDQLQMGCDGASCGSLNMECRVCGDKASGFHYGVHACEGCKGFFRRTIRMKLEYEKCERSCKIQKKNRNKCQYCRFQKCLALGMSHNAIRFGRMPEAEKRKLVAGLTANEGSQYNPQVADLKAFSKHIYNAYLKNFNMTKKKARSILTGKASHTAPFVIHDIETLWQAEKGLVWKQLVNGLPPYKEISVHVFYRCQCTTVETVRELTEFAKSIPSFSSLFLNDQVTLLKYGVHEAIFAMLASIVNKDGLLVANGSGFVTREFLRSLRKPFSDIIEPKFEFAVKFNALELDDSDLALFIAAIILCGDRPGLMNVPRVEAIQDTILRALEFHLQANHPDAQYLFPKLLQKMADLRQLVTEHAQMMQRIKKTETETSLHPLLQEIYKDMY

Cc1c(C)n(Cc2ccccc2)c2ccc(C(=O)OCCN(C)C)cc12
inactive: Potency [2] | Potency [8]
inconclusive: Potency [1] 21.1 µM [falling, partial curve] | Potency [3] 33.5 µM [inhibitor, single point] | Potency [4] 10.6 µM [rising, partial curve, poor fit] | Potency [5] 29.8 µM [falling, partial curve, poor fit] | Potency [6] 29.8 µM [cytotoxic, partial curve] | Potency [7] 33.5 µM [cytotoxic, single point] | Potency [9] 37.6 µM [cytotoxic, partial curve, poor fit] | Potency [10] 26.8 µM [cytotoxic, single point]

Cc1ccc(O)c2ncccc12
inconclusive: Potency [1] 33.5 µM [falling, single point] | Potency [2] 8.49 µM [activator, full curve, poor fit] | ratio activity, negative = inhibition [3] 20.6% | Potency [11] 6.68 µM [cytotoxic, full curve] | Potency [12] 6.68 µM [cytotoxic, full curve] | Potency [13] 0.596 µM [cytotoxic, full curve, poor fit] | Potency [5] 0.473 µM | Potency [14] 0.422 µM [rising, full curve] | Potency [15] 0.75 µM [rising, full curve] | Potency [16] 18.8 µM [rising, partial curve] | Potency [7] 5.96 µM [cytotoxic, full curve] | Potency [17] 10.6 µM [falling, full curve] | Potency [18] 1.06 µM | activity change, negative = inhibition [8] -24.3% | Potency [10] 13.4 µM [cytotoxic, partial curve]

Clc1ccc(C(Cn2ccnc2)OCc2ccsc2Cl)c(Cl)c1 (stereo not given)
active: Potency [1] 26.6 µM | Potency [19] 29.8 µM | Potency [7] 18.8 µM
inconclusive: ratio activity, negative = inhibition [3] -17.8% | Potency [11] 33.5 µM [cytotoxic] | Potency [4] 23.7 µM [falling, partial curve] | Potency [12] 29.8 µM [cytotoxic, single point] | Potency [5] 19.6 µM | Potency [14] 6.68 µM [rising, full curve, poor fit] | Potency [15] 33.5 µM [inhibitor, single point] | Potency [16] 33.5 µM [inhibitor] | Potency [20] 13.3 µM [activator] | Potency [17] 29.8 µM [falling, single point] | activity change, negative = inhibition [8] -29.2% | Potency [10] 26.8 µM [cytotoxic, single point]
